Test results from the RNAGym collection of RNA variant scans (doi:10.1093/nar/gkz1192).
The source gives no read counts; variants with many changes may rest on few reads.

B1: CPEB3 Ribozyme (parent)
chain: UAACAGGGGGCCACAGCAGAAGCGUUCACGUCGCAGCCCCUGUCAGAUUCUGGUGAAUCUGCGAAUUCUGCUGUAUAUCUC

Variants of: B1
Experiment: self-cleavage, relative activity (ratio to wild type); higher = more cleavage; in vitro, sequencing
In short: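 Relative activity was defined as the cleaved/total read fraction for a variant divided by the same fraction for the unmutated ribozyme. CPEB3 self-cleaving ribozyme libraries were made by rounds of error-prone PCR, barcoded, and transcribed in vitro with T7 RNA polymerase for 5 hours at 37°C, and cleavage ran through transcription plus a 15 min DNase I step before EDTA. Illumina sequencing of template-switched reverse transcripts gave the reads, and DNA sequencing mapped the barcodes. Averages come from three batches, using variants with at least 5 reads.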

| Variant | self-cleavage |
| --- | --- |
| UAACAGGGGUCCACAGCAGAAGCGUUCACGUCGCAGCCCCUGUCAGGUUCUGGUGAAUCUGCGAAUUCUGCUGUAUACCUC | 0.08 |
| UAACAGGGGUCCACAGCAGAAGCGUUCACGUCGCAGCCCCUGUCAGAUUCUGGUGAAUCUGCGGAUUCUCCUGUAUAUCUC | 0.32 |
| UAACAGGGGUGCACAGCAGAAGCGUUCACGUCGCAGCCCCUGUCAGAUUCUCGUGAAUCUGCGAAUUCUGCUGUAUAUCUC | 0.26 |
| UAACAGGGGUCCAUAGCAGAAGCGUUCACGUCGCGGCCCCUGUCUGACUCUGGUGAAUCUGCAAAUUCUGCUGUAUAUCUC | 0.07 |
| UAACAGGGGUCCACAGGAGAAGCGUUCACGUCGCAGCCCCUGUCUGAUUCUGGCGAAUCUGCGAAUUCUGCUGUAUAACUC | 0.15 |
| UAACAGGGGUCCACAGUAGAAGCGUUCACGUCGCAGCCCCUGUCAGAUUCUGGUGAAUCUGCGAAUUAUGCUGUAUAUCUC | 0.19 |
| UAACAGGGGUCCACAGCAGAAGUGUUCACGUCGCAGCCCCGGCCAGAUUCUGGUGGAUCUGCGAAUUCUGCUGUACAUCUC | 0.04 |
| UAACAGGGGUCCACAGCAGAAGCGUUCACAUCGCAGCCCCUGUCGGAUUCUGGUGAAUCCGCGAAUUCUGCUGUACAUCUC | 0.09 |
| UAACAGGGGUCCACAGCAGAAGCGUUCACGUCACAGCCCCUGUUUGACUCUGGUGGAUCUGCGAAUUCUGCUGAAUAUCUC | 0.03 |
| UAACAGGGGUCCACAGCAGAAGCGUUCACGUCGCAUCCCCUGUCAGAUUUUGGUGAAUCCGCGAAUUCUGCUGUAUAUCUC | 0.05 |
| UAACAGGGGUCCACAGCAGAAGCGUUCACGUCGCAGCCCCUGUCAGAUUCUUGUGAAUCUGCGAAUUCUGCAGUAUAUCUC | 0.12 |
| UAACAGGGGUCCACAGCAGAAGCGCUCACGUCGCAGCCCCUGUCUCAUUCUGGUGAAUCUGCGAAUUCCGCCGUAUGUCUC | 0.04 |
| UAACAGGGGUCCACAGCAGAAGCGCUCACGUCGCAGCCCCUGUCAGAUUCUGGUGUAUCUGCGAGUUCUGCUGUAUAUCUC | 0.1 |
| UAACAGGGGUCCACAGCAGAAGCGUACACGUCGCAGCCCCUGUCAGAUUCUGGUGAAUCUGCGGAUUCCGCUGUAUAUCUC | 0.04 |
| UAACAGGGGUCCACAGCAGAAGCGUACACGUCGCAGCCCCCGUCAGAUUCUGGUGAAUCUGCGAAUUCGGCUGUAUAUCCC | 0.06 |
| UAACAGGGGUCCACAGCAGAAGCGUACACGUCGCAGCCCCUGUCAGAUUCAGGUGAAUCUGCGUAUUCUGCUGUAUAUCUC | 0.13 |
| UAACAGGGGUCCACAGCAGAAGCGUCCACGUCGCAGCGCCUGUCAGAUUCUGGUGAAUCUGCGAAUUCAGCUGUAUAUCUC | 0.35 |

| Variant | self-cleavage |
| --- | --- |
| UAACAGGGGUCCACAGCAGAAGCGUCCACGUCGCAGCCCCUGUCAGAUUCUGGCGGAUCAGCGAAUUCUGCCGUAUAUCUC | 0.05 |
| UAACAGGGGGACGCAGCAGUAGCGUUCACGUCGCAGCCCAUGUCAGAUCCUGGUGAAUCUGCGAAUUCUGCCGUAUAUCCC | 0.03 |
| UAACAGGGGGACGCAGCAGAAGCGUUCACGUCGCGGCCCCUGUCGGAUUCUGGUGAAUCCGCGAAUCCUGCUGUAUAUCUC | 0.13 |
| UAACAGGGGGACGCAGCAGAAGCGAUCACGUCGCAGCCCCUGUCAGAUUCUGGUGAAUCUGCGAAUUCAGCUGUAUAUCUC | 0.06 |
| UAACAGGGGGACGCAGCAGAAGCGCCCACGUCGCAGCCCCUGUCAGAUUCUGGUGAAUCUGCGAGUUCUGCUGUAUAUCCC | 0.04 |
| UAACAGGGGGACUCAGCAGAAGCGUUCACGUCGCAGCCCCUGUCAGAUUCUGGUGAAUCUGCGUAUUCUGCUGUACAUGUC | 0.07 |
| UAACAGGGGGACACGGCAGAAGCGUUCACGUCGCUGCCCCUGUCAGAUUCUGGUGAGUCUGCGAAUUCAGCUGUAUAUCUC | 0.07 |
| UAACAGGGGGACACGGCAGAAGCGUUCACGUCGCAGCCCCUGUCGGAUCCAGGUGAAUCUGCCAAUUCUGCUGUAUAUCUC | 0.21 |
| UAACAGGGGGACACGGCAGAAGCGUUCAUGUCGCAGCCCCUGUCAGAUUCUGGUGAAUCUGCGAAUUCUGCUGUAUACCAC | 0.45 |
| UAACAGGGGGACACUGCUGAAGCGUUCACGUCGCAGCCCCUGUCAGAUUCUGGUGGAUCUGCGAAUUCUGCUGUAUAUCUC | 0.07 |
| UAACAGGGGGACACUGCAGAAGCGUUCACGUCGCGGCCCCUGUCGGAUUCUGGUGAAUCUGCGAAUUCUGCUGUAUAUCUC | 0.39 |
| UAACAGGGGGACACAGCGGAAGCGUUCACGUCGCAGCUCCUGUCAGAUUCUGGUGAAUCAGCGAAUUCUGCCGUAUAUCUC | 0.04 |
| UAACAGGGGGACACAGCGGAAGCUUUCACGUCGCAGCCCCUGACAGAUUCUGGUGAAUCUGCGAGCUCUGCUGUAUAACUC | 0.03 |
| UAACAGGGGGACACAGCGGAAGCGUUCACGAGGCAGCCCCUGUCAGAUUCUGGUGAACCUGCGAAUUCAGCUGUAUAUCUC | 0.04 |
| UAACAGGGGGACACAGCUGAAGCGUUCAUGGCGCAGCCCCUGUCAGAUUCUGGUGAAUCUGCGAAUUCUGCUGUAUAUCUC | 0.07 |
| UAACAGGGGGACACAGCUGAAGCGUUCACGUCGCAGCCCCUGUCAGAUUCUGGUGAAUCCGCGAGUUCUGCUGUAUAUCUC | 0 |
| UAACAGGGGGACACAGCAGGAGCGUUCACGUCGCAGCCCCUGUCCGAUACUGGUGAAUCUGCGAAUUCUGCUGUAUAUCUC | 0.17 |
